Test results as given in patent publication US20130331325A1 (published 2013).

B1: N-terminally hexahistidine-tagged, mature form of human FGF19 ([…]) (ligand)
chain: not shown
B2: human FGF2 ([…]) (ligand)
chain: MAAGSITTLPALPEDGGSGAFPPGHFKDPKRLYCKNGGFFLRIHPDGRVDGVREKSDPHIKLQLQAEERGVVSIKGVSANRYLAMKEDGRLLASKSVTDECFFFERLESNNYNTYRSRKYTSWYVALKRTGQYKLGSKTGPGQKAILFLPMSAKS

Biological target: T1, ligand-binding domain of human FGFR1c (D142 to R365) (human, UniProt P11362 142-365)
T1 chain: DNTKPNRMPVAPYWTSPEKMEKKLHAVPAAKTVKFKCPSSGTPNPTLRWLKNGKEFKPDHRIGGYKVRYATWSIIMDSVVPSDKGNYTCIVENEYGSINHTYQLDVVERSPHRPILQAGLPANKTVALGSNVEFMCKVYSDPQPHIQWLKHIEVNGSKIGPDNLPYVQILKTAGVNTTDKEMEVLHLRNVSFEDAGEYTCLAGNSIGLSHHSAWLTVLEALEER
Assay: SPR

| Binder | Kd [nM] |
| --- | --- |
| B1 | 1910 |
| B2 | 58 |
